# Results from the supplement of paper PMC8728848.
# This is one part of the list.
# What was measured:
# Assay in all cases: glycan array binding signal (z-score within array); higher = stronger binding
# Settings in all cases: glycan notation: IUPAC condensed, linker removed
# Gal(b1-3)GlcNAc = target: Gal(b1-3)GlcNAc
# In short: (§1)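 From the Consortium for Functional Glycomics database, 3228 arrays were curated, keeping only those whose protein sequence was available. Binding is given as a within-array Z-score averaged across arrays sharing a protein sequence and across linkers. Negative Z-scores can be read as non-binding.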
# [1] = target: Gal(b1-3)GlcNAc(b1-2)Man(a1-3)[Gal(b1-3)GlcNAc(b1-2)Man(a1-6)]Man(b1-4)GlcNAc(b1-4)GlcNAc
# In short: as §1
# [2] = target: Gal(b1-3)GlcNAc(b1-3)Gal(b1-3)GlcNAc
# In short: as §1
# [3] = target: Gal(b1-3)GlcNAc(b1-3)Gal(b1-4)Glc
# In short: as §1
# [4] = target: Gal(b1-3)GlcNAc(b1-3)Gal(b1-4)GlcNAc
# In short: as §1
# [5] = target: Gal(b1-3)[Fuc(a1-4)]GlcNAc
# In short: as §1
# [6] = target: Gal(b1-3)[Fuc(a1-4)]GlcNAc(b1-3)Gal(b1-3)[Fuc(a1-4)]GlcNAc
# In short: as §1
# [7] = target: Gal(b1-3)[Fuc(a1-4)]GlcNAc(b1-3)Gal(b1-4)GlcNAc
# In short: as §1
# [8] = target: Gal(b1-3)[Fuc(a1-4)]GlcNAc(b1-3)Gal(b1-4)[Fuc(a1-3)]GlcNAc
# In short: as §1
# [9] = target: Gal(b1-3)[GlcNAc(b1-6)]GalNAc
# In short: as §1
# [10] = target: Gal(b1-3)[Neu5Ac(a2-6)]GalNAc
# In short: as §1
# [11] = target: Gal(b1-3)[Neu5Ac(a2-6)]GlcNAc(b1-6)Gal(b1-4)Glc
# In short: as §1
# [12] = target: Gal(b1-3)[Neu5Ac(b2-6)]GalNAc
# In short: as §1
# [13] = target: Gal(b1-4)GalNAc(a1-3)[Fuc(a1-2)]Gal(b1-4)GlcNAc
# In short: as §1
# [14] = target: Gal(b1-4)GalNAc(b1-3)[Fuc(a1-2)]Gal(b1-4)GlcNAc
# In short: as §1
# Gal(b1-4)Glc = target: Gal(b1-4)Glc
# In short: as §1
# Gal(b1-4)Glc6S = target: Gal(b1-4)Glc6S
# In short: as §1
# Gal(b1-4)GlcNAc = target: Gal(b1-4)GlcNAc
# In short: as §1
# [15] = target: Gal(b1-4)GlcNAc(a1-6)Gal(b1-4)GlcNAc
# In short: as §1
# [16] = target: Gal(b1-4)GlcNAc(b1-2)Man(a1-3)[Gal(b1-4)GlcNAc(b1-2)Man(a1-6)]Man(b1-4)GlcNAc(b1-4)GlcNAc
# In short: as §1
# [17] = target: Gal(b1-4)GlcNAc(b1-3)Gal(b1-3)GlcNAc
# In short: as §1
# [18] = target: Gal(b1-4)GlcNAc(b1-3)Gal(b1-4)Glc
# In short: as §1
# [19] = target: Gal(b1-4)GlcNAc(b1-3)Gal(b1-4)GlcNAc
# In short: as §1
# [20] = target: Gal(b1-4)GlcNAc(b1-3)Gal(b1-4)GlcNAc(b1-3)Gal(b1-4)GlcNAc
# In short: as §1
# [21] = target: Gal(b1-4)GlcNAc(b1-3)Gal(b1-4)[Fuc(a1-3)]GlcNAc(b1-3)Gal(b1-4)[Fuc(a1-3)]GlcNAc
# In short: as §1
# [22] = target: Gal(b1-4)GlcNAc(b1-3)GalNAc
# In short: as §1
# [23] = target: Gal(b1-4)GlcNAc(b1-3)[Gal(b1-4)GlcNAc(b1-6)]Gal(b1-4)GlcNAc
# In short: as §1
# [24] = target: Gal(b1-4)GlcNAc(b1-3)[GlcNAc(b1-6)]Gal(b1-4)GlcNAc
# In short: as §1
# [25] = target: Gal(b1-4)GlcNAc(b1-6)Gal(b1-4)GlcNAc
# In short: as §1
# [26] = target: Gal(b1-4)GlcNAc(b1-6)Gal(b1-4)GlcNAc(b1-6)GalNAc
# In short: as §1
# [27] = target: Gal(b1-4)GlcNAc(b1-6)GalNAc
# In short: as §1
# [28] = target: Gal(b1-4)GlcNAc(b1-6)[Gal(b1-3)]GalNAc
# In short: as §1
# Gal3S(b1-3)GalNAc = target: Gal3S(b1-3)GalNAc
# In short: as §1
# Gal3S(b1-3)GlcNAc = target: Gal3S(b1-3)GlcNAc
# In short: as §1
# [29] = target: Gal3S(b1-3)[Fuc(a1-4)]GlcNAc
# In short: as §1
# Gal3S(b1-4)Glc = target: Gal3S(b1-4)Glc
# In short: as §1
# Gal3S(b1-4)Glc6S = target: Gal3S(b1-4)Glc6S
# In short: as §1
# Gal3S(b1-4)GlcNAc = target: Gal3S(b1-4)GlcNAc
# In short: as §1
binder,measurement,setting,value
"LSECtin (Homo sapiens), Q6UXB4 (protein) MEQESALRELRERVTQGLAEAGRGREDVRTELFRALEAVRLQNNSCEPCPTSWLSFEGSCYFFSVPKTTWAAAQDHCADASAHLVIVGGLDEQGFLTRNTRGRGYWLGLRAVRHLGKVQGYQWVDGVSLSFSHWNQGEPNDAWGRENCVMMLHTGLWNDAPCDSEKDGWICEKKAQLLTPPSALEPRPLQHVVSWGLLTSLAPGADCQRVFSSSSTAAESQKHLAQHSPVQPSAWALGPPCRPHPNSTHADPT",glycan array binding signal (z-score),Gal(b1-3)GlcNAc,-0.278
same,glycan array binding signal (z-score),[1],-0.228
same,glycan array binding signal (z-score),[2],-0.298
same,glycan array binding signal (z-score),[3],-0.295
same,glycan array binding signal (z-score),[4],-0.302
same,glycan array binding signal (z-score),[5],-0.237
same,glycan array binding signal (z-score),[6],-0.278
same,glycan array binding signal (z-score),[7],-0.281
same,glycan array binding signal (z-score),[8],-0.241
same,glycan array binding signal (z-score),[9],-0.298
same,glycan array binding signal (z-score),[10],-0.299
same,glycan array binding signal (z-score),[11],-0.298
same,glycan array binding signal (z-score),[12],-0.305
same,glycan array binding signal (z-score),[13],-0.296
same,glycan array binding signal (z-score),[14],-0.236
same,glycan array binding signal (z-score),Gal(b1-4)Glc,-0.306
same,glycan array binding signal (z-score),Gal(b1-4)Glc6S,-0.299
same,glycan array binding signal (z-score),Gal(b1-4)GlcNAc,-0.298
same,glycan array binding signal (z-score),[15],-0.297
same,glycan array binding signal (z-score),[16],2.3
same,glycan array binding signal (z-score),[17],-0.293
same,glycan array binding signal (z-score),[18],-0.302
same,glycan array binding signal (z-score),[19],-0.297
same,glycan array binding signal (z-score),[20],-0.308
same,glycan array binding signal (z-score),[21],-0.289
same,glycan array binding signal (z-score),[22],-0.303
same,glycan array binding signal (z-score),[23],-0.28
same,glycan array binding signal (z-score),[24],-0.307
same,glycan array binding signal (z-score),[25],-0.301
same,glycan array binding signal (z-score),[26],-0.309
same,glycan array binding signal (z-score),[27],-0.297
same,glycan array binding signal (z-score),[28],-0.295
same,glycan array binding signal (z-score),Gal3S(b1-3)GalNAc,-0.29
same,glycan array binding signal (z-score),Gal3S(b1-3)GlcNAc,-0.279
same,glycan array binding signal (z-score),[29],0.3
same,glycan array binding signal (z-score),Gal3S(b1-4)Glc,-0.267
same,glycan array binding signal (z-score),Gal3S(b1-4)Glc6S,-0.291
same,glycan array binding signal (z-score),Gal3S(b1-4)GlcNAc,-0.283
